Laboratory results as given in the supplement of paper PMC10126150.
Values marked as one replicate rest on one cluster of the flow cell; about a third of the high ones do not repeat.
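Note: ATP exposure 15 min at 22 °C before imaging.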

These sequences were tested on ATP (assay: switch fluorescence ratio, 500 uM ATP over buffer (Cy3 cluster intensity, sum of 5 cycles each) (fold (ratio)); higher = stronger signal-on switching upon ATP binding; sequences stand for … in TCGTCGGCAGCGTCAGATGTGTATAAGAGACAGTTTTTTTTTTTTTTTTTTTTTTTTT…TC). Details: aptamer strand: ATP DNA aptamer (quencher-CACCTGGGGGAGTATTGCGGAGGAAGG + anchor), 100 nM annealed; ATP concentration: 500 uM; one replicate.
Procedure, shortened: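 Values give the fluorescence ratio for each switch-domain sequence, averaged from per-cluster ratios of summed target-cycle to summed buffer-cycle Cy3 intensity. The Cy3-labelled switching-strand clusters sat on a modified Illumina MiSeq flow-cell, were annealed to 100 nM quencher-labelled ATP aptamer, and were imaged in selection buffer, then after 15 min with 500 uM ATP at 22 °C. Five cycles ran with NaOH stripping and re-annealing between them, and clusters outside 100-1000 RFU were excluded.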
AGACGGATGG showed a switch fluorescence ratio of 1.01. AGACGGATTG gave a switch fluorescence ratio of 0.952. With AGACGGGTGT the switch fluorescence ratio was 1.03. For AGACGGTACT, the switch fluorescence ratio was 1.35. With AGACTAGGGA the switch fluorescence ratio was 1.01. Work on AGACTGAATA yielded a switch fluorescence ratio of 1.03. Sequence AGACTGGAT has a switch fluorescence ratio of 1.01. Sequence AGACTTTAAG has a switch fluorescence ratio of 0.974. With AGAGAAGCCA the switch fluorescence ratio was 0.981. With AGAGAAGCTA the switch fluorescence ratio was 1.03. For AGAGAATGCC, the switch fluorescence ratio was 0.982. In the case of AGAGACGCGT, the switch fluorescence ratio is reported as 0.997. In the case of AGAGATACAT, the switch fluorescence ratio is reported as 1.02. For AGAGATCTAC, the switch fluorescence ratio was 1.02. Work on AGAGCCCGTC yielded a switch fluorescence ratio of 1.01. For AGAGCCTAGG, the switch fluorescence ratio was 1.04. Work on AGAGCGGGAC yielded a switch fluorescence ratio of 1.38. In the case of AGAGCGGGTC, the switch fluorescence ratio is reported as 0.933. Sequence AGAGCTGCTA has a switch fluorescence ratio of 1.03. AGAGCTTTTC gave a switch fluorescence ratio of 1. With AGAGGAGACT the switch fluorescence ratio was 1.06. Work on AGAGGCAAAG yielded a switch fluorescence ratio of 1.04. Sequence AGAGGCGCAC has a switch fluorescence ratio of 1.06. Sequence AGAGGTAATT has a switch fluorescence ratio of 0.985. In the case of AGAGGTCACT, the switch fluorescence ratio is reported as 0.982. In the case of AGAGGTCGTA, the switch fluorescence ratio is reported as 1.01. With AGAGGTTTTC the switch fluorescence ratio was 0.992. In the case of AGAGTACCAC, the switch fluorescence ratio is reported as 0.949. With AGAGTACG the switch fluorescence ratio was 0.978. In the case of AGAGTAGGAA, the switch fluorescence ratio is reported as 0.993. In the case of AGAGTAGTCC, the switch fluorescence ratio is reported as 1.02. AGAGTATGA showed a switch fluorescence ratio of 0.983. AGAGTCTGAT was tested, and the switch fluorescence ratio was 0.98. Work on AGAGTGCATT yielded a switch fluorescence ratio of 1.05. Sequence AGAGTTCAGG has a switch fluorescence ratio of 0.964. In the case of AGAGTTCCAA, the switch fluorescence ratio is reported as 1. AGAGTTCTT gave a switch fluorescence ratio of 1.03. Work on AGAGTTTATA yielded a switch fluorescence ratio of 1. For AGATAACAAA, the switch fluorescence ratio was 1.08. Work on AGATACGGTT yielded a switch fluorescence ratio of 0.989. Sequence AGATAGAACC has a switch fluorescence ratio of 1.02. Work on AGATAGAATT yielded a switch fluorescence ratio of 0.982. Work on AGATAGAGGG yielded a switch fluorescence ratio of 1.01. For AGATAGCTGG, the switch fluorescence ratio was 1. Work on AGATAGTAAT yielded a switch fluorescence ratio of 1.06. Sequence AGATAGTACC has a switch fluorescence ratio of 1.04. Work on AGATAGTGGT yielded a switch fluorescence ratio of 0.974. Sequence AGATATACCT has a switch fluorescence ratio of 1.28. For AGATATAGGT, the switch fluorescence ratio was 1.02. Sequence AGATATGGTA has a switch fluorescence ratio of 0.972. With AGATCAGTTT the switch fluorescence ratio was 1.05. Work on AGATCCTGTG yielded a switch fluorescence ratio of 1.02. AGATCGATGC was tested, and the switch fluorescence ratio was 0.994. AGATCGATGT was tested, and the switch fluorescence ratio was 0.961. In the case of AGATCGCCAT, the switch fluorescence ratio is reported as 1.05. In the case of AGATCGGGAG, the switch fluorescence ratio is reported as 0.982. AGATCTGAG showed a switch fluorescence ratio of 0.971. AGATGAAA was tested, and the switch fluorescence ratio was 0.987. For AGATGAACCG, the switch fluorescence ratio was 1.1. With AGATGACATG the switch fluorescence ratio was 1.04. Work on AGATGACGCT yielded a switch fluorescence ratio of 1.02. With AGATGCACGT the switch fluorescence ratio was 1. AGATGCTGG showed a switch fluorescence ratio of 0.993. AGATGGTAT was tested, and the switch fluorescence ratio was 1.02. AGATGGTTAA gave a switch fluorescence ratio of 1.01. Work on AGATGGTTTT yielded a switch fluorescence ratio of 0.984. AGATGTGTCC showed a switch fluorescence ratio of 1.03. AGATGTTAGT showed a switch fluorescence ratio of 1. AGATTACGAT gave a switch fluorescence ratio of 1.01. In the case of AGATTACGCT, the switch fluorescence ratio is reported as 1. AGATTAGCAT gave a switch fluorescence ratio of 1.05. Work on AGATTATCTT yielded a switch fluorescence ratio of 0.99. Sequence AGATTCGGGT has a switch fluorescence ratio of 0.995. AGATTGACTA showed a switch fluorescence ratio of 1.02. Sequence AGATTGCTAA has a switch fluorescence ratio of 1. In the case of AGATTGTGTG, the switch fluorescence ratio is reported as 1.02. AGATTTCACG gave a switch fluorescence ratio of 1.02. Sequence AGATTTCGG has a switch fluorescence ratio of 0.955. AGATTTGCAC was tested, and the switch fluorescence ratio was 1. AGATTTTGGG gave a switch fluorescence ratio of 1.02. Work on AGCAAAACCT yielded a switch fluorescence ratio of 2.79. AGCAACCGGC was tested, and the switch fluorescence ratio was 1.04. With AGCAAGGGAG the switch fluorescence ratio was 1.06. For AGCAAGGTGT, the switch fluorescence ratio was 1.4. With AGCACAAGGC the switch fluorescence ratio was 1.09. With AGCACACGAC the switch fluorescence ratio was 2.43. Work on AGCACCGTCA yielded a switch fluorescence ratio of 0.967. AGCACGAACT gave a switch fluorescence ratio of 1.59. With AGCACGATCT the switch fluorescence ratio was 1.05. Work on AGCACTAGAC yielded a switch fluorescence ratio of 1.47. Work on AGCACTGGAC yielded a switch fluorescence ratio of 1.36. In the case of AGCACTGTG, the switch fluorescence ratio is reported as 1.01. AGCAGAACGT showed a switch fluorescence ratio of 1.14. For AGCAGAATTT, the switch fluorescence ratio was 0.981. In the case of AGCAGACGAG, the switch fluorescence ratio is reported as 1.02. AGCAGACTCT showed a switch fluorescence ratio of 1.74. Sequence AGCAGCATGA has a switch fluorescence ratio of 1.03. In the case of AGCAGGTAAT, the switch fluorescence ratio is reported as 1.02. AGCAGGTTAT gave a switch fluorescence ratio of 0.991. In the case of AGCATAATAG, the switch fluorescence ratio is reported as 1.24. AGCATACCG gave a switch fluorescence ratio of 1.05. Work on AGCATCGAGC yielded a switch fluorescence ratio of 0.979. For AGCATGATCG, the switch fluorescence ratio was 1.05. With AGCATGGGGA the switch fluorescence ratio was 1.06. AGCATTAGAT was tested, and the switch fluorescence ratio was 1.02. Sequence AGCATTTACT has a switch fluorescence ratio of 1.39. With AGCCAACTAG the switch fluorescence ratio was 1.03. For AGCCAGCCTC, the switch fluorescence ratio was 1.2. With AGCCAGGTCA the switch fluorescence ratio was 1.06. In the case of AGCCCAGGAA, the switch fluorescence ratio is reported as 1.22. In the case of AGCCCCTCTG, the switch fluorescence ratio is reported as 1.06. With AGCCCGCCGT the switch fluorescence ratio was 1.04. With AGCCCTGCAC the switch fluorescence ratio was 1.03. AGCCGACGCG gave a switch fluorescence ratio of 1.05. Sequence AGCCGAGTAC has a switch fluorescence ratio of 1.14. In the case of AGCCGCGCTT, the switch fluorescence ratio is reported as 0.982. For AGCCGGACTA, the switch fluorescence ratio was 1.2. In the case of AGCCGGACTC, the switch fluorescence ratio is reported as 1.04. Work on AGCCGGATCG yielded a switch fluorescence ratio of 0.982. With AGCCGGGAGT the switch fluorescence ratio was 0.991. Work on AGCCGGGTAC yielded a switch fluorescence ratio of 1.16. AGCCGTAT gave a switch fluorescence ratio of 1.05. In the case of AGCCGTGTGA, the switch fluorescence ratio is reported as 1.06. AGCCGTTAAT gave a switch fluorescence ratio of 0.964. In the case of AGCCTACGTA, the switch fluorescence ratio is reported as 1.11. AGCCTATATA was tested, and the switch fluorescence ratio was 1. Sequence AGCCTCCACT has a switch fluorescence ratio of 1.04. In the case of AGCCTCTATG, the switch fluorescence ratio is reported as 1.05. AGCCTTAGGC was tested, and the switch fluorescence ratio was 0.981. For AGCGAAGTTT, the switch fluorescence ratio was 1.02. In the case of AGCGAATAGG, the switch fluorescence ratio is reported as 1.07. Sequence AGCGAGCTTT has a switch fluorescence ratio of 0.978. AGCGAGTTAA gave a switch fluorescence ratio of 0.993. With AGCGATTCCG the switch fluorescence ratio was 1.04. Work on AGCGATTTTA yielded a switch fluorescence ratio of 1.03. For AGCGCAACGC, the switch fluorescence ratio was 1.09. With AGCGCATGGT the switch fluorescence ratio was 1. In the case of AGCGCCGTTG, the switch fluorescence ratio is reported as 1.02. AGCGCCTTTT gave a switch fluorescence ratio of 1.01. With AGCGCGGGGA the switch fluorescence ratio was 1.02. For AGCGGAGACT, the switch fluorescence ratio was 1.03. AGCGGAGCGG gave a switch fluorescence ratio of 1. AGCGGAGGAG showed a switch fluorescence ratio of 0.977. For AGCGGGCTCT, the switch fluorescence ratio was 0.949. Sequence AGCGGGTGG has a switch fluorescence ratio of 1.01. AGCGGTCCAA showed a switch fluorescence ratio of 1.06. For AGCGGTTTAT, the switch fluorescence ratio was 0.98. With AGCGGTTTGA the switch fluorescence ratio was 0.971. AGCGTACGCA showed a switch fluorescence ratio of 1.02. AGCGTAGAAG was tested, and the switch fluorescence ratio was 0.992. In the case of AGCGTCCGCT, the switch fluorescence ratio is reported as 0.995. AGCGTCCGTT gave a switch fluorescence ratio of 0.938. For AGCGTCTATC, the switch fluorescence ratio was 1.03. In the case of AGCGTTAACT, the switch fluorescence ratio is reported as 1.01. With AGCGTTGTGA the switch fluorescence ratio was 1.02. Sequence AGCGTTTACA has a switch fluorescence ratio of 1.05. Work on AGCTAACAGT yielded a switch fluorescence ratio of 1.02. For AGCTACTCTT, the switch fluorescence ratio was 1.23. Sequence AGCTACTTAA has a switch fluorescence ratio of 1.01. For AGCTAGGGGT, the switch fluorescence ratio was 1.03. Work on AGCTATGGTT yielded a switch fluorescence ratio of 1.02. AGCTCAACTC gave a switch fluorescence ratio of 1.07. Work on AGCTCACCTT yielded a switch fluorescence ratio of 1.11. In the case of AGCTCACTCT, the switch fluorescence ratio is reported as 0.982. AGCTCAGTAC was tested, and the switch fluorescence ratio was 1.35. AGCTCAGTGG was tested, and the switch fluorescence ratio was 0.972. AGCTCCTGGC was tested, and the switch fluorescence ratio was 0.985. AGCTCGCGAA was tested, and the switch fluorescence ratio was 0.961. AGCTCGTTAG was tested, and the switch fluorescence ratio was 1.01. With AGCTCTTGCC the switch fluorescence ratio was 1.02. With AGCTGATTAT the switch fluorescence ratio was 0.97. AGCTGCATC showed a switch fluorescence ratio of 1.09. Sequence AGCTGGAAGG has a switch fluorescence ratio of 1.01. AGCTGTCTGA showed a switch fluorescence ratio of 0.984. For AGCTTAATCG, the switch fluorescence ratio was 0.965. Work on AGCTTCGTTG yielded a switch fluorescence ratio of 0.981. AGCTTGGAGG gave a switch fluorescence ratio of 1.04. For AGCTTGTCAT, the switch fluorescence ratio was 0.97. AGCTTGTTGA was tested, and the switch fluorescence ratio was 1.02. AGCTTTCCCC showed a switch fluorescence ratio of 1.04. AGCTTTGGAG was tested, and the switch fluorescence ratio was 1.05. AGCTTTTCGA showed a switch fluorescence ratio of 0.996. AGCTTTTGCA showed a switch fluorescence ratio of 1.02. Sequence AGGAAGTAAC has a switch fluorescence ratio of 1. Sequence AGGAATCGG has a switch fluorescence ratio of 0.987. AGGACACCGC gave a switch fluorescence ratio of 1.12. Work on AGGACCGTGT yielded a switch fluorescence ratio of 1.01. For AGGACGGCTG, the switch fluorescence ratio was 0.967. AGGACGTCTT gave a switch fluorescence ratio of 0.983. For AGGACGTGCA, the switch fluorescence ratio was 1.02. In the case of AGGACGTGTC, the switch fluorescence ratio is reported as 0.92. AGGACGTTAT showed a switch fluorescence ratio of 1.07. AGGACTAATT showed a switch fluorescence ratio of 1.04. In the case of AGGACTCGGT, the switch fluorescence ratio is reported as 0.957. Work on AGGACTGCGA yielded a switch fluorescence ratio of 1.03. AGGACTGGCG gave a switch fluorescence ratio of 1.07. In the case of AGGAGACGAG, the switch fluorescence ratio is reported as 1. AGGAGAGGA gave a switch fluorescence ratio of 0.976. Sequence AGGAGCAGTC has a switch fluorescence ratio of 1.15. For AGGAGCCGTT, the switch fluorescence ratio was 0.983.
